Data reported in PubChem BioAssay AID588795 (National Center for Advancing Translational Sciences (NCATS), 2011).
Several values for one entry are separate records, joined by “and”; a condition that tells them apart may be missing. Equal values may be shown once. Among all 390,000 compounds or so, about 1,400 (0.36%) were called active. Inconclusive means that the source gave no clear call. Such entries were picked first, then a sample of the others. Calls come from the whole dose curve; as a rule, active = well fitted inhibition curve with a large enough effect; inconclusive = small, poorly fitted or top-dose-only effect; inactive = no such curve, though single readings can be large or run the other way. Where the call is inconclusive, the potency comes from a doubtful curve fit.

Each compound was assayed against Flap endonuclease 1 (Homo sapiens) (UniProt P39748) (assay: qHTS Assay for the Inhibitors of Human Flap endonuclease 1 (FEN1).). Details: Recombinant FEN1 flap cleavage, fluorescence, 15 min; series mostly up to 114 µM.
Method in brief: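 With each library titrated from low to high concentration, compounds met 10 nM FEN1 for 15 min at room temperature before 50 nM substrate was added; readings at 0 and 15 min fed four-parameter Hill curve fits.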
Note: nearly all actives have a fitted effect of over 65% in size.
Potency is the fitted concentration of half-maximal effect; tags give direction and shape of the fitted curve.

Chain of UniProt P39748 (P39748 whole entry, looked up): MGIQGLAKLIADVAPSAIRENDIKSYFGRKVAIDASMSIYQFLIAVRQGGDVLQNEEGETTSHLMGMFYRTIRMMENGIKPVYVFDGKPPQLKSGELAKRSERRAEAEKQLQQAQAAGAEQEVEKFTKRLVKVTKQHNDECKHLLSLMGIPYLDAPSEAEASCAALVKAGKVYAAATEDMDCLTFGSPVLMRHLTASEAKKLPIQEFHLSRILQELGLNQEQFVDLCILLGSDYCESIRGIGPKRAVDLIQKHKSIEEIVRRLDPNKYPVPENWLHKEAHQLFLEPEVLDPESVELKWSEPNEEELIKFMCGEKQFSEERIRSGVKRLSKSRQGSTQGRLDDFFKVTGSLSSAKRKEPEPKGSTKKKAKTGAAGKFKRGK

Row | Compound | Potency
1 | Cc1cccc(-c2noc(-c3ccccc3NC(=O)C3CC(=O)N(c4ccccc4C)C3)n2)c1 (stereo not drawn) | inactive
2 | CC[n+]1c(/C=C/C=C/N(C(C)=O)c2ccccc2)sc2ccccc21 | inconclusive: 56.2 µM [inhibitor, partial curve, poor fit]
3 | O=C1C(SCCO)=C(SCCO)C(=O)c2ccccc21 | inconclusive: 89.1 µM [inhibitor, partial curve, poor fit] and inconclusive: 10 µM [inhibitor, partial curve, poor fit] and inconclusive: 6.7 µM [inhibitor, full curve]
4 | O=C(O)c1ccc(/C=N/NC(=O)c2cc3c(ccc4ccccc43)o2)cc1 | inconclusive: 50.1 µM [inhibitor, partial curve, poor fit]
5 | COc1cc(OC)cc(-c2sc3ccc(OC)cc3c2C#CC(C)(C)O)c1 | inconclusive: 39.8 µM [inhibitor, partial curve, poor fit]
6 | Cc1ccc(NC(=O)CN2C(=O)S/C(=C\c3cccn3-c3cccc(C(=O)O)c3)C2=O)c(C)c1 | inconclusive: 63.1 µM [inhibitor, partial curve, poor fit]
7 | CCOC(=O)c1cc2c(=O)n3ccccc3nc2n(Cc2ccco2)c1=NC(=O)c1ccccc1Br | inconclusive: 50.1 µM [inhibitor, partial curve]
8 | Cc1cccc(CS(=O)(=O)c2nnc([C@H](Cc3ccccc3)NC(=O)OC(C)(C)C)o2)c1 | inconclusive: 89.1 µM [inhibitor, partial curve, poor fit]
9 | CCOC(=O)c1c(NC(=O)CSc2nnc(-c3ccccc3)n2CC)sc(C(C)=O)c1C | inconclusive: 89.1 µM [inhibitor, partial curve, poor fit]
10 | O=C(CSc1nc(NS(=O)(=O)c2ccccc2)cc(=O)[nH]1)Nc1ccc(F)cc1 | inconclusive: 89.1 µM [inhibitor, single point]
11 | COc1cc(/C=C/C(=O)CC(=O)/C=C/c2ccc(O)c(OC)c2)ccc1O | inconclusive: 50.1 µM [inhibitor, partial curve] and inconclusive: 70.8 µM [inhibitor, partial curve]
12 | Cc1ccccc1C1=C/C(=C(\SS/C(C(=O)c2ccc(OCC(=O)O)c(Cl)c2Cl)=C2\C=C(c3ccccc3C)SS2)C(=O)c2ccc(OCC(=O)O)c(Cl)c2Cl)SS1 | active: 56.2 µM
13 | CC1CCCCN1Cc1c(O)ccc2c(=O)c(-c3nc4ccccc4s3)c(N)oc12 (stereo not drawn) | inconclusive: 56.2 µM [inhibitor, partial curve, poor fit]
